# Reference: the supplement of paper PMC8728848
# Some of the results follow.
# Experiments:
# Assay in all cases: glycan array binding signal (z-score within array); higher = stronger binding
# Conditions in all cases: glycan notation: IUPAC condensed, linker removed
# [1] = target: Neu5Ac(a2-6)Gal(b1-4)GlcNAc(b1-2)Man(a1-3)[GlcNAc(b1-2)Man(b1-4)GlcNAc(b1-2)Man(a1-6)]Man(b1-4)GlcNAc(b1-4)GlcNAc
# Method in brief: (§1)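 Glycan array binding is given as a within-array Z-score, which can be read as non-binding when negative. The arrays, 3228 of them, came from the Consortium for Functional Glycomics database and were retained only where the protein sequence was available. Z-scores were averaged across arrays of the same protein sequence at different concentrations or buffers and across linkers.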
# [2] = target: Neu5Ac(a2-6)Gal(b1-4)GlcNAc(b1-2)Man(a1-3)[GlcNAc(b1-4)][Neu5Ac(a2-6)Gal(b1-4)GlcNAc(b1-2)Man(a1-6)]Man(b1-4)GlcNAc(b1-4)GlcNAc
# Method in brief: as §1
# [3] = target: Neu5Ac(a2-6)Gal(b1-4)GlcNAc(b1-2)Man(a1-3)[Man(a1-6)]Man(b1-4)GlcNAc(b1-4)GlcNAc
# Method in brief: as §1
# [4] = target: Neu5Ac(a2-6)Gal(b1-4)GlcNAc(b1-2)Man(a1-3)[Neu5Ac(a2-3)Gal(b1-4)GlcNAc(b1-2)Man(a1-6)]Man(b1-4)GlcNAc(b1-4)GlcNAc
# Method in brief: as §1
# [5] = target: Neu5Ac(a2-6)Gal(b1-4)GlcNAc(b1-2)Man(a1-3)[Neu5Ac(a2-6)Gal(b1-4)GlcNAc(b1-2)Man(a1-6)]Man(b1-4)GlcNAc(b1-4)GlcNAc
# Method in brief: as §1
# [6] = target: Neu5Ac(a2-6)Gal(b1-4)GlcNAc(b1-2)Man(a1-3)[Neu5Ac(a2-6)Gal(b1-4)GlcNAc(b1-2)Man(a1-6)]Man(b1-4)GlcNAc(b1-4)[Fuc(a1-6)]GlcNAc
# Method in brief: as §1
# [7] = target: Neu5Ac(a2-6)Gal(b1-4)GlcNAc(b1-2)Man(a1-6)Man(b1-4)GlcNAc(b1-4)GlcNAc
# Method in brief: as §1
# [8] = target: Neu5Ac(a2-6)Gal(b1-4)GlcNAc(b1-2)Man(a1-6)[Gal(b1-4)GlcNAc(b1-2)Man(a1-3)]Man(b1-4)GlcNAc(b1-4)GlcNAc
# Method in brief: as §1
# [9] = target: Neu5Ac(a2-6)Gal(b1-4)GlcNAc(b1-2)Man(a1-6)[GlcNAc(b1-2)Man(a1-3)]Man(b1-4)GlcNAc(b1-4)GlcNAc
# Method in brief: as §1
# [10] = target: Neu5Ac(a2-6)Gal(b1-4)GlcNAc(b1-2)Man(a1-6)[Man(a1-3)]Man(b1-4)GlcNAc(b1-4)GlcNAc
# Method in brief: as §1
# [11] = target: Neu5Ac(a2-6)Gal(b1-4)GlcNAc(b1-2)[Neu5Ac(a2-6)Gal(b1-4)GlcNAc(b1-4)]Man(a1-3)[GlcNAc(b1-4)][Neu5Ac(a2-6)Gal(b1-4)GlcNAc(b1-2)[Neu5Ac(a2-6)Gal(b1-4)GlcNAc(b1-6)]Man(a1-6)]Man(b1-4)GlcNAc(b1-4)GlcNAc
# Method in brief: as §1
# [12] = target: Neu5Ac(a2-6)Gal(b1-4)GlcNAc(b1-2)[Neu5Ac(a2-6)Gal(b1-4)GlcNAc(b1-4)]Man(a1-3)[GlcNAc(b1-4)][Neu5Ac(a2-6)Gal(b1-4)GlcNAc(b1-4)Man(a1-6)]Man(b1-4)GlcNAc(b1-4)GlcNAc
# Method in brief: as §1
# [13] = target: Neu5Ac(a2-6)Gal(b1-4)GlcNAc(b1-2)[Neu5Ac(a2-6)Gal(b1-4)GlcNAc(b1-6)]Man(a1-6)[Neu5Ac(a2-6)Gal(b1-4)GlcNAc(b1-2)Man(a1-3)][GlcNAc(b1-4)]Man(b1-4)GlcNAc(b1-4)GlcNAc
# Method in brief: as §1
# [14] = target: Neu5Ac(a2-6)Gal(b1-4)GlcNAc(b1-3)Gal(b1-3)GlcNAc
# Method in brief: as §1
# [15] = target: Neu5Ac(a2-6)Gal(b1-4)GlcNAc(b1-3)Gal(b1-4)GlcNAc
# Method in brief: as §1
# [16] = target: Neu5Ac(a2-6)Gal(b1-4)GlcNAc(b1-3)Gal(b1-4)GlcNAc(b1-2)Man(a1-3)[Neu5Ac(a2-6)Gal(b1-4)GlcNAc(b1-3)Gal(b1-4)GlcNAc(b1-2)Man(a1-6)]GalNAc
# Method in brief: as §1
# [17] = target: Neu5Ac(a2-6)Gal(b1-4)GlcNAc(b1-3)Gal(b1-4)GlcNAc(b1-3)Gal(b1-4)GlcNAc
# Method in brief: as §1
# [18] = target: Neu5Ac(a2-6)Gal(b1-4)GlcNAc(b1-3)Gal(b1-4)GlcNAc(b1-3)Gal(b1-4)GlcNAc(b1-2)Man(a1-3)[Neu5Ac(a2-6)Gal(b1-4)GlcNAc(b1-3)Gal(b1-4)GlcNAc(b1-3)Gal(b1-4)GlcNAc(b1-2)Man(a1-6)]GalNAc
# Method in brief: as §1
# [19] = target: Neu5Ac(a2-6)Gal(b1-4)GlcNAc(b1-3)Gal(b1-4)GlcNAc(b1-3)GalNAc
# Method in brief: as §1
# [20] = target: Neu5Ac(a2-6)Gal(b1-4)GlcNAc(b1-3)Gal(b1-4)GlcNAc(b1-3)[Neu5Ac(a2-6)Gal(b1-4)GlcNAc(b1-3)Gal(b1-4)GlcNAc(b1-6)]GalNAc
# Method in brief: as §1
# [21] = target: Neu5Ac(a2-6)Gal(b1-4)GlcNAc(b1-3)Gal(b1-4)GlcNAc(b1-6)[Gal(b1-3)]GalNAc
# Method in brief: as §1
binder,measurement,setting,value
PpFlo2 (Pichia pastoris) (protein) MGSSHHHHHHSSGLVPRGSHMDDSGNGDNSDTAYGCDITTNAVDGFDATIYQYNANDLRLIRDPTFMSTGYLGRNVLNKISGVTVPGFNIWNPSSRTATVYGVKNVNYYNMVLELKGYFKADVSGDYKLTLSHIDDSSMLFFGKETAFKCCDAGSIPLNEAPTDYSLFTIKPSNQVNSEVISATQYLEAGKYYPVRIVFVNALERARFDFKLTIPSGAVLDDFQNYIYQFGDLDENSCHE,glycan array binding signal (z-score),[1],-0.34
same,glycan array binding signal (z-score),[2],-0.273
same,glycan array binding signal (z-score),[3],-0.288
same,glycan array binding signal (z-score),[4],-0.271
same,glycan array binding signal (z-score),[5],-0.257
same,glycan array binding signal (z-score),[6],-0.266
same,glycan array binding signal (z-score),[7],-0.295
same,glycan array binding signal (z-score),[8],-0.291
same,glycan array binding signal (z-score),[9],2.77
same,glycan array binding signal (z-score),[10],-0.161
same,glycan array binding signal (z-score),[11],-0.267
same,glycan array binding signal (z-score),[12],-0.265
same,glycan array binding signal (z-score),[13],-0.272
same,glycan array binding signal (z-score),[14],-0.289
same,glycan array binding signal (z-score),[15],-0.295
same,glycan array binding signal (z-score),[16],-0.242
same,glycan array binding signal (z-score),[17],-0.291
same,glycan array binding signal (z-score),[18],-0.147
same,glycan array binding signal (z-score),[19],-0.272
same,glycan array binding signal (z-score),[20],-0.096
same,glycan array binding signal (z-score),[21],-0.182
